This is one part of the list. At the low end of the ranking the order means little.
What follows are sequences tested against SIX1 homeodomain (reference allele) (UniProt Q15475) (assay: universal protein binding microarray). Settings: Universal all-10-mer PBM (8x60K, AMADID 030236), 300 nM GST-tagged protein, Alexa Fluor 488 anti-GST; buffer, salt, pH and temperature not stated; high values mean tight binding; most listed sequences are background and not binding sites; double strand, one strand shown.

Sequence | binding signal [E-score]
AGTGGAGC | -0.0928
CCAAACAA | -0.0894
TTCTAAAA | -0.112
GGGTAATA | 0.311
ATATCCAC | 0.395
ATTTCTTG | -0.273
AACAGCAC | -0.244
AGCTACTC | -0.141
ACTCCCGG | 0.0728
AATCTGCA | 0.0208
AGATCGCA | 0.281
CGGTCATA | 0.0521
AGCCTAAG | -0.142
CCGCAACC | -0.0441
CGACCGTA | -0.0336
AAACGGGC | -0.085
CTCGATCA | 0.105
AGATATTG | 0.311
AAAATAGG | -0.112
GGGGGTGA | -0.0422
AAATCGAC | -0.354
AAAAACGC | -0.146
ACAGCGCG | -0.345
TGCGACCA | -0.00851
AGTGAGAA | 0.134

Sequence | binding signal [E-score]
AAGAACCC | -0.113
GACCTTCC | -0.259
CACTAGCG | -0.0772
ACTCGGGC | -0.00516
GAACAAAC | 0.00737
CATCCATG | 0.139
AACTGGGC | -0.357
GTAATCAC | -0.0264
GTCTTTGA | -0.146
CACTCTTC | -0.168
ATAAGGAT | 0.272
CGAGAAAG | -0.149
CCTTCATC | -0.0546
CATGATGC | 0.0998
GCGACCGC | -0.188
GCTGTTGA | -0.0429
AAGTTGCC | -0.15
AAAGTTAT | 0.0113
AATAAACC | -0.0199
GCCCTTAC | -0.344
AGGCTGAC | -0.167
CCCGTCAC | 0.00742
CACCGGTA | 0.28
ACGTCGTG | -0.0388
AGTCACAT | -0.109

Sequence | binding signal [E-score]
AGATATCA | 0.451
CCCCGGCG | 0.106
TACTATCA | 0.325
TACTAAAA | -0.0304
AGCCCCGC | 0.0083
AGTGACAT | -0.277
AGCTGTGC | -0.0631
CTGGTGAC | 0.0038
CCATCGAA | 0.0149
CATCTTCA | -0.115
AGCGAGAA | -0.101
ACGGAACT | -0.135
CGCTATCC | 0.339
CAACAGAA | -0.159
GTGGGCAA | -0.15
ACCCGACT | 0.0403
TGCAATAA | -0.0872
CACGCCCC | 0.0548
CAGAGTGG | -0.0964
CGGACACG | 0.06
GTAACAGA | -0.0577
CTACATAA | -0.149
AAGTAGCT | -0.207
CATGCACC | -0.201
TATTCGCA | 0.115

Sequence | binding signal [E-score]
ACATCTCA | 0.194
CACAATAG | 0.00042
ATTAATGG | 0.102
GTAACCAC | -0.131
ACCGGAGA | 0.201
CCGGTACA | 0.0895
AGTGGCGA | 0.13
CCTTAGTC | -0.169
ACCCCTTA | 0.0658
GTCATGGA | -0.0559
AGCTGAAT | -0.139
CGCCGGAC | -0.165
ACCGAACG | -0.129
CGACGGGA | 0.00103
CGAACGCG | 0.0187
AATTCTGC | -0.165
GAAAACTC | -0.318
GCACAACC | -0.293
AACGAGCC | -0.0327
ATCAACTA | 0.115
CAGTTTAG | -0.145
CCTAGAAC | -0.0964
CGGGGGAA | -0.139
GAGGTAGC | -0.117
GCACGACA | 0.0954

Sequence | binding signal [E-score]
GTTACGGA | -0.137
AGAGTTGG | -0.186
CGAACGTC | -0.253
CTGCACCA | -0.0478
ATAGTGTC | 0.283
CCAGAGTA | 0.126
AGGTGCAA | -0.0425
AGATACGC | 0.349
AACTCTAG | -0.0794
ATGAGGTG | 0.107
CACTGGAG | 0.025
ACACACAT | -0.0254
CGATTACC | -0.052
ACTTGGAG | 0.0631
GGCAAAAC | -0.283
GGAAAGGA | 0.0876
CTCAGGTC | -0.169
GGTGGCAC | -0.163
CTACCCTC | 0.0438
ACGTTAGC | -0.122
AAGGTTGC | -0.118
TGCAGGAA | -0.101
CTCATCTA | 0.0672
CAGAGACC | -0.116
TGGTACAA | -0.258

Sequence | binding signal [E-score]
CTAGCTTA | -0.199
CACCCCAA | 0.111
GGTTCAAC | -0.00809
ACGTTCAC | -0.238
CCGTTCCC | -0.0549
CTGTGTAA | -0.106
CACGCTCA | -0.0893
AGCATCCA | -0.129
CTTAGACC | -0.133
AGCGTACT | -0.049
AAAGAGCA | -0.0405
CCTCGCCC | -0.0825
CGCCTCAA | -0.23
GCAGCTGA | 6e-05
AATATCTG | 0.188
CCGGCTAA | 0.178
TGGGCGAA | -0.0151
ACAAATGG | -0.0554
AAGACAAG | 0.0825
ACCTACCC | 0.0871
AAAGGTTC | 0.0303
TAGGCCCA | -0.333
GGTAAGTA | 0.106
AGCAATTA | -0.123
ACAATTGA | 0.136

Sequence | binding signal [E-score]
AGTCTCTG | -0.0615
ACACAGTC | -0.0881
GCACCTAA | -0.0277
CAGTAGAC | 0.0331
ACCTCGCT | -0.092
TATCCTAA | 0.238
AACTTAGG | -0.278
AAGCAATA | 0.141
CAAGCCTA | -0.195
GAATTTCA | -0.267
CTGCGGCC | -0.0392
AGGCAGTA | -0.172
AAGTACGT | -0.00652
ACGTCTAC | -0.16
CCGACGGA | -0.0714
TTCAACAA | -0.0609
GGATAGAA | 0.176
GACTAGAA | -0.141
CCGATCAA | 0.122
CGCCCCGA | 0.105
GGTTTGCA | -0.0893
TACGTGGA | 0.195
AAGCAGAC | -0.1
CCCCGACA | 0.00234
CCGGCAGG | -0.147

Sequence | binding signal [E-score]
CATAGCAG | -0.141
AACTAAGT | -0.152
ATCGAAAT | 0.0372
CTTTGGTA | -0.18
CGTTTATC | 0.0183
CGCTCAAA | -0.0913
GTTCGAGA | -0.162
AAACCACT | 0.00495
AATGAAGG | -0.138
ACATGATG | -0.024
ATGGGTTA | 0.124
CAGCGCCC | -0.189
CCGGACGC | -0.182
CCAAATCG | -0.0505
CCCCTCCC | 0.0159
AGTGTTAC | -0.138
CCCAGTGC | 0.128
AGCCAAGA | -0.119
GGCGTTAA | -0.0898
AGCCCCCT | -0.121
GTCTCCCA | 0.0479
GAGATCAC | 0.368
CGGCGTGC | -0.137
AACGCTAG | -0.164
CATGAATA | -0.0164

Sequence | binding signal [E-score]
TCCCGCGA | 0.177
CATACGCC | 0.11
ATCGGCAG | 0.0557
ACGTCGCC | -0.21
GGTCAGGA | 0.0405
CCCTACGC | 0.0368
AATAATAT | 0.228
ACAGACGC | -0.0184
ACGGAGTG | -0.101
CATGTAGA | 0.0538
GCATCTTA | 0.112
GGCTCCCC | -0.116
GAGGAGAA | -0.15
CATGGCGC | -0.0882
CCTGCGTC | -0.0548
GTCTGGGA | -0.134
AGCGGACT | -0.0737
GAGTCGGC | -0.164
CTGCCGCA | -0.236

— PMC10668032
